Source: the RNAGym collection of RNA variant scans (doi:10.7554/elife.90254)
Read counts are not given, so values of variants with three or more changes are uncertain.

B1: LINE1-mini (parent)
chain: GGCAGAGCUCAACACAGCGUGGCAAAGUGGCUGUGGCUAGACUGCC

Variants of: B1
Assay: self-cleavage, relative activity (ratio to wild type); higher = more cleavage; in vitro, sequencing; the parent is a self-cleaving ribozyme

Variant	self-cleavage
U9G A11C G36U	0.03
U9G A11C U20G C37U	0
U9G A11C U28G C46G	0
U9G A11G A24G C45U	0.01
U9G A11U A12C C18A G21U G27A	0
U9G A11U G27A	0.02
U9G A12C C13A G19A	0.03
U9G A12C G21U G29A	0.01
U9G A12C G27A C31U G33C G36U C42G	0
U9G A12C G36U C37A A41C	0.03
U9G A12U C13U G19U G27U	0.06
U9G A12U U34G G40C	0
U9G A14C G19A	0.05
U9G A14C G19C G21A C37A A41U G44U	0.07
U9G A14C U28C	0.06
U9G A14C U34A	0.02
U9G A14G G44U	0.08
U9G A14G U38C	0.03
U9G A14U C15A C42U	0.02
U9G A14U C46A	0.06
U9G A16C A25G G27A	0.1
U9G A16G G27C	0
U9G A16U A24G C46A	0.06
U9G A16U A39G	0.02

Variant	self-cleavage
U9G A16U C31G	0.03
U9G A24C C46A	0.02
U9G A24C C46G	0.05
U9G A24C G30C	0.02
U9G A24C G30C A41U U43A G44C	0.04
U9G A24G A41G G44U	0.06
U9G A24G U43A	0.02
U9G A24U G29U C31U	0.01
U9G A25C C31U	0.01
U9G A25C C42U	0.07
U9G A25G A41C C46A	0
U9G A25G G40C	0.04
U9G A26C G30U C31U	0.01
U9G A26U G30A	0.09
U9G A26U U28G G29C	0.01
U9G A39U C46U	0.06
U9G A41U U43A C46G	0.11
U9G C10A A14C A26G U34G	0.01
U9G C10A C46U	0.02
U9G C10A G17C	0.01
U9G C10A G30U	0.01
U9G C10G A11G C37G	0
U9G C10G A26C U32G	0.02
U9G C10G A26U	0.03

Variant	self-cleavage
U9G C10G C31A U32G	0.02
U9G C10G G22U G27U A39G	0.01
U9G C10G G30A	0.01
U9G C10G G30U G40C	0.01
U9G C10G U32C	0.01
U9G C10U A12U	0.05
U9G C10U C13U A14G A24U A25C C45U	0.03
U9G C10U G27A G29C U34C	0.02
U9G C13A A26C G44A	0.09
U9G C13A G17U C31A	0.32
U9G C13A G40U A41C	0.09
U9G C13G A41U C42A G44A	0.07
U9G C13G G17A G21U G35A C37G	0.08
U9G C13U C18G	0.11
U9G C13U G17A G36A G40C G44C	0.16
U9G C13U G21A G22C C23A	0.06
U9G C13U G21U U28G U43G	0.36
U9G C15A A25G G30U G33A	0.06
U9G C15A C18A G29C	0.08
U9G C15A G19A	0.13
U9G C15A G22A U32A	0.03
U9G C15A G30U	0.03
U9G C15A G40U	0.28
U9G C15A U20C G40U	0.04

Variant	self-cleavage
U9G C15G G36U	0.46
U9G C15U G21U A25G G33U A39C G44A	0
U9G C15U U34A G35U C42U	0.02
U9G C18A A25C A39C	0.03
U9G C18A U34G	0.09
U9G C18A U43C G44C	0.02
U9G C18G C23U U28A G29A G35A	0.1
U9G C18U C23U G36C	0.05
U9G C18U G19U C37U	0.11
U9G C18U G21A	0.13
U9G C18U G33A U43C	0.04
U9G C18U G33U	0.08
U9G C18U U28G G30A	0.11
U9G C23A C46U	0.12
U9G C23G G33U	0.01
U9G C23U A25C	0.11
U9G C23U A26G	0.02
U9G C23U C37U	0.04
U9G C23U C42A	0.08
U9G C31A C42U	0.02
U9G C31U A41G	0.02
U9G C37U A39G	0.05
U9G C45G C46U	0.11
U9G G17A U20A A39G C46U	0

Variant	self-cleavage
U9G G17A U38C C42A C45G	0.11
U9G G17C C23U G40C	0.03
U9G G17C G35U C37A U43G	0.12
U9G G17U C37A	0.17
U9G G17U G29C G30A U32A	0.17
U9G G17U U28A C31G G40A	0.03
U9G G17U U28G G29A	0.02
U9G G19A C42A	0.04
U9G G19A G30C	0.28
U9G G19A U38C	0.02
U9G G19C C37G	0
U9G G19C G36U	0.05
U9G G19U A25G G30A	0.02
U9G G19U G30U C31G G44A	0.01
U9G G21U C23G C37G A39C A41G	0.01
U9G G21U C31G	0.02
U9G G21U C31U	0.02
U9G G21U G22C	0.01
U9G G22A G30A U34G C46A	0.05
U9G G22A G40U	0.03
U9G G22C C23A	0.01
U9G G22C G30C	0.11
U9G G27A C46U	0.04
U9G G27C C31A G36A G44A	0.05

Variant	self-cleavage
U9G G27C C37A U38C U43A	0.06
U9G G27C U38G A39U	0.02
U9G G27U G40U	0.11
U9G G29C U32G C37U	0.07
U9G G30A G36A	0.23
U9G G33U G36U	0.03
U9G G35A A39G	0.07
U9G G35C U38C C42A C45G	0.01
U9G G35U C45G	0.04
U9G G35U U38A	0
U9G G40U C42A	0.03
U9G G44A C45U	0.25
U9G U20A U43G G44U	0.45
U9G U20C U32C C37A U43G G44U	0.03
U9G U38C U43C G44U	0.02
C10A A11C A12G U38G C45A	0
C10A A11C A25C G44A	0.02
C10A A11C G17C	0
C10A A11C G21A G33U	0.01
C10A A11C G22A U32A G40A U43A	0.01
C10A A11C G30C C45G	0.02
C10A A11C U28C	0
C10A A11U A24G	0.08
C10A A11U C15A G40A	0.02

Variant	self-cleavage
C10A A11U C31G A41U	0
C10A A11U U28A	0.01
C10A A12C A16C	0
C10A A12C A24C C37U G44C C46A	0
C10A A12C C18G U20C G44U	0.01
C10A A12C C23G C45U	0
C10A A12C C37U A39C	0
C10A A12C G33U	0
C10A A12G A25U C37U	0
C10A A12G A26G C37A	0.02
C10A A12G C13U G36A	0.02
C10A A12G U34A A39C	0.04
C10A A12U A24C C46A	0
C10A A12U A24G	0.06
C10A A12U C13A C15U G36U	0.03
C10A A12U C15A	0.01
C10A A12U C18U	0.04
C10A A12U C31U C42G	0.01
C10A A12U U28G G33A	0.02
C10A A14C C45G	0.01
C10A A14C G22U	0.01
C10A A14C U20A C23G C42G	0
C10A A14C U28C U43G C46A	0
